The campaign covered roughly 110,000 compounds. About 230 (0.21%) showed an effect of 50% or more. The list shows a part of the results.
The molecules below were run against DPAP1 (Plasmodium falciparum, UniProt Q8IIJ9) (assay: primary screen, percent inhibition; read by cleavage of a fluorogenic dipeptide substrate; higher = more effect of the substance).
Design: species or system P. falciparum D10 trophozoite lysates; single well
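Further: 30 min substrate incubation versus DMSO and 10 µM JCP410 controls.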

Chain of DPAP1 (Q8IIJ9 whole entry, looked up): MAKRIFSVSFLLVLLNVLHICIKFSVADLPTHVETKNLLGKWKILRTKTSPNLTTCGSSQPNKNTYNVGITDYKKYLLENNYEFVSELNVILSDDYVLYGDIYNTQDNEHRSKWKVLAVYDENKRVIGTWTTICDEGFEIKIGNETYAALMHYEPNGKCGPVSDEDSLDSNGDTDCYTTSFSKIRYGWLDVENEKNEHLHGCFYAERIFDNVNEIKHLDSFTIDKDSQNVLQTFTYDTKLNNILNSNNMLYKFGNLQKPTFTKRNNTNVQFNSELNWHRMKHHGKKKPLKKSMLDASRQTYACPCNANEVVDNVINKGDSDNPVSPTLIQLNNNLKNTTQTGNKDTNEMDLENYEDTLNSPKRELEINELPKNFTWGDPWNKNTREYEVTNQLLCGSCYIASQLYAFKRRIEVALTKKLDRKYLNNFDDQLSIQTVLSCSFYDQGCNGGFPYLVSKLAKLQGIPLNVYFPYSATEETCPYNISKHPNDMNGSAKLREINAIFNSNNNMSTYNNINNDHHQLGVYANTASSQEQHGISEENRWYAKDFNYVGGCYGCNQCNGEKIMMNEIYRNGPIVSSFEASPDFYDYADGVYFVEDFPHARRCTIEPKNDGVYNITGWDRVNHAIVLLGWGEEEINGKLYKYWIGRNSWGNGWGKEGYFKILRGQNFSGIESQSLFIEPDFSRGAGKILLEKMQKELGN

| SMILES | % Inhibition @ 10 uM [%] |
| --- | --- |
| COc1cccc(/C=c2\sc3nc(-c4cccc(C)c4)nn3c2=O)c1 | -1.18 |
| COc1cc(C(=O)NC(c2ccccc2)c2c(O)ccc3ccccc23)cc(OC)c1OC (stereo not shown) | 10.2 |
| CCCCC(=O)Nc1ccc(C(C)=O)cc1 | -1.46 |
| O=C(C1CCCN(c2ncnc3c2nc2n3CCCCC2)C1)N1CCN(Cc2ccccc2)CC1 (stereo not shown) | -2.96 |
| Cc1cc(Br)ccc1OCCCN1CCC(C)CC1 | 3.25 |
| COc1ccc(C2=NOC(C(=O)NC3CCCC3)C2)cc1 (stereo not shown) | 3.2 |
| COc1cccc(NC(=O)c2cnn3c(C(F)F)cc(-c4ccc(C)cc4)nc23)c1 | 2.42 |
| COC(=O)c1cc2nc(-c3ccccc3)cc(C)n2n1 | 4.57 |
| CCCc1[nH]nc2c1C(c1cccc(O)c1)C(C#N)=C(N)O2 (stereo not shown) | 5.89 |
| CCOC(=O)c1c(N)sc2c1CCN(CCc1ccccc1)C2 | 3.54 |
| NS(=O)(=O)c1ccc(CNC(=O)c2cc(-c3cccs3)nc3ccccc23)cc1 | 7.04 |
| Fc1cccc(F)c1CN1CCC(N2CCCCC2)CC1 | -8.55 |
| O=C1CC(c2ccco2)CC(=O)C1=CNCCN1CCN(C2OC(=O)c3ccccc32)CC1 (stereo not shown) | 2.24 |
| CCc1nc(O)c2c3c(sc2n1)CCCCC3 | 5.55 |
| Cc1ccc(C)c(NC(=O)c2cccs2)c1 | -8.2 |
| Clc1ccc(CNC2CCN(Cc3ccccc3)CC2)cc1Cl | -0.0908 |
| CCc1nn(CC(=O)N(CC)Cc2ccccc2)c(=O)c2cc3sccc3n12 | 1.8 |
| O=C1CC(c2ccccc2)CC(=O)C1=CNCc1cccc(C(F)(F)F)c1 (stereo not shown) | 9.01 |
| CSc1ccc(CCNC(=O)c2ccc3nc(N4CCCCC4)sc3c2)cc1 | -2.37 |
| CS(=O)(=O)N(Cc1ccc(Cl)cc1)c1ccc(C(=O)NC2CCCC2)cc1 | 2.95 |
| COc1ccc(-c2ccc(C3C(C#N)=C(N)OC4=C3C(=O)CC(C)(C)C4)o2)cc1 (stereo not shown) | 7.17 |
| Cc1ccnc(NC(=O)COc2cc(C)ccc2C)c1 | -7.23 |

| SMILES | % Inhibition @ 10 uM [%] |
| --- | --- |
| O=C(Nc1ccc(S(=O)(=O)Nc2ccc(F)cc2)cc1)C1CCCCC1 | 1.84 |
| Cc1cc2cc(CNC(=S)NCc3ccccc3)ccc2n1C | -7.53 |
| COc1ccc(NC(=O)COc2ccc(C)cc2Br)cc1 | -0.473 |
| O=C(O)c1c(CNCc2ccc3c(c2)OCO3)c2ccccc2n1Cc1cccc(F)c1 | -0.232 |
| Cc1ccc(C(=O)Nc2ccc3nc(SCC(=O)N4CCCC4)sc3c2)cc1 | -0.105 |
| [O-][n+]1c(CSc2nc3ccccc3[nH]2)c(CSc2nc3ccccc3[nH]2)[n+]([O-])c2ccccc21 | 8.06 |
| Clc1ccccc1COc1cccc(CNCc2cccnc2)c1 | -0.992 |
| NC(=O)Cn1c(=O)n(CCCC(=O)NCc2ccccc2)c(=O)c2sccc21 | -2.47 |
| Cc1ccc2ccc3cc(C(=O)O)[nH]c3c2n1 | -3.42 |
| COc1cc2sc3ccccc3c(=O)c2cc1OC | 0.467 |
| Cc1cccc(C(=O)NC(=O)Nc2c(C)cc(C)nc2C)c1 | -2.63 |
| CC(C)(C)c1ccc(S(=O)(=O)N2CC(=O)Nc3ccccc32)cc1 | -2.8 |
| CCn1c(SCC(=O)Nc2nc(-c3ccccc3)c(C)s2)nnc1-c1ccccc1O | -3.53 |
| C=Cc1ccc(Cn2c(C(=O)O)c(CNCCCc3ccccc3)c3ccccc32)cc1 | 3.34 |
| O=C(CSc1ccc(Cl)cc1)Nc1cc(C(F)(F)F)ccc1N1CCOCC1 | -2.67 |
| Oc1nc(CN2CCCC2)nc2c1C1(CCCC1)Cc1ccccc1-2 | -0.687 |
| CC(C)CCn1c(SCc2ccccc2)nc2c1c(=O)[nH]c(=O)n2C | -4.12 |
| O=C1c2ccc(Br)cc2C(=O)N1c1ccccc1F | -10.9 |
| Oc1ncnn1Cc1ccccc1Br | -4.35 |
| Clc1ccc(N2CCN(CCc3ccccc3)CC2)cc1 | 0.0792 |
| O=C(CC(c1ccccc1)c1ccccc1O)NCCN1CCOCC1 (stereo not shown) | 0.778 |
| CC(=O)OC1(c2ccccc2)CCCCC1CN(C)C (stereo not shown) | -3.58 |

| SMILES | % Inhibition @ 10 uM [%] |
| --- | --- |
| O=C(Cn1nnc(-c2ccc(C(F)(F)F)cc2)n1)N1CCCC1 | 4.58 |
| COc1cc(CN2CCN(S(=O)(=O)c3ccc(Cl)cc3)CC2)cc(OC)c1O | 9.6 |
| Cc1cc(OCC(=O)Nc2ccccc2C(=O)Nc2ccccc2)ccc1Br | 3.48 |
| CCN1C(=O)N/C(=C/c2cn(CC(=O)Nc3cccc(C)c3)c3ccccc23)C1=O | 0.52 |
| Cc1ccc(NC(=O)c2ccc(Br)o2)cc1Cl | 1.88 |
| CCn1c(SCC(=O)NCc2ccc(F)cc2)nc2c(c1=O)SCC2 | 1.39 |
| COc1ccccc1C(=O)Nc1cc2ccccc2oc1=O | 7.49 |
| Cc1c(CNC(C)C)c(C(=O)O)c(C)n1Cc1ccccc1 | 1.41 |
| COc1ccc(-c2cc(C(F)(F)F)nc(SCC(=O)NCCCN3CCOCC3)n2)cc1 | -4.62 |
| CCOC(=O)c1cc(C)n(CC2CCC(C(=O)NCc3ccc4c(c3)OCO4)CC2)c1C (stereo not shown) | 3.31 |
| CC(=O)N1c2ccccc2N=C2CC(c3ccco3)CC(O)=C2C1c1ccco1 (stereo not shown) | -1.84 |
| COc1ccccc1CNC(=O)Cc1noc2ccccc12 | 4.7 |
| CCCCOc1ccc(NC(=O)C2CCCCC2C(=O)O)cc1 (stereo not shown) | -10.9 |
| Cc1nnc(SCC(=O)NCc2cccc(Br)c2)c2nn(-c3ccccc3)c(C)c12 | 3.24 |
| O=[N+]([O-])c1ccc(N2CCN(CC3CC=CCC3)CC2)cc1 (stereo not shown) | -3.57 |
| Cc1ccc2c(c1)cc1c(=O)n(CC(=O)NCCCc3ccccc3)nc(C)n12 | 1.68 |
| CCOc1cc(C2c3c(-c4c(C)cc(C)cc4O)n[nH]c3C(=O)N2CCO)ccc1O (stereo not shown) | 0.00706 |
| CCOc1cccc2cc(C(=O)/C=C/c3ccc(C(=O)OC)cc3)c(=O)oc12 | 4.49 |
| O=C(NCc1ccccc1)c1cnn2c1NC(c1cccs1)CC2C(F)(F)F (stereo not shown) | 4.33 |
| O=[N+]([O-])c1ccc2[nH]c3ccccc3c2c1 | -1.76 |

— paper PMC6919601, “Identification of Plasmodium dipeptidyl aminopeptidase allosteric inhibitors by high throughput screening” (PLoS ONE, 2019)
